The values that follow come from publication PMC4491109, “Synthesis and anticonvulsant activity of new N-phenyl-2-(4-phenylpiperazin-1-yl)acetamide derivatives” (Medicinal Chemistry Research, 2015).

In assay [1] the test system is voltage-sensitive sodium channel (site 2). The class given is binding, rat.
The target in assay [2] is voltage-sensitive sodium channel (site 2). Also on record: method as in Brown, 1986. The following applies: rat cerebral cortex, experimental conditions of Cerep assay, ref Brown, 1986; read-out: Kd of the radioligand; cited from earlier work.

With `Cl.O=C(CN1CCN(c2cccc(C(F)(F)F)c2)CC1)Nc1cccc(C(F)(F)F)c1` [Compound 20, N-[3-(Trifluoromethyl)phenyl]-2-[4-[3-(trifluoromethyl)phenyl]piperazin-1-yl]acetamide monohydrochloride], the “% Inhibition of control specific binding, 1 μM” value in assay [1] ([3H]BTX, synaptoneurosomal preparations from rat cerebral cortex, 1 μM) is 4.2%. Also, the “% Inhibition of control specific binding, 10 μM” value in assay [1] ([3H]BTX, synaptoneurosomal preparations from rat cerebral cortex, 10 μM) was determined as 7.5%. For the same molecule, the “% Inhibition of control specific binding, 100 μM” value in assay [1] ([3H]BTX, synaptoneurosomal preparations from rat cerebral cortex, 100 μM) turned out to be 10.8%. Moreover, the “% Inhibition of control specific binding, 500 μM” value in assay [1] ([3H]BTX, synaptoneurosomal preparations from rat cerebral cortex, 500 μM) is on record as 46.7%. The “binding to the neuronal voltage-sensitive sodium channel (in words)” value in assay [1] (at the highest concentration, 500 μM, 25-50 % inhibition = weak to moderate effects) is reported as “moderate binder”.

Take [^3H] Batrachotoxin: the Kd (commonly a measure of binding affinity in units of concentration) in assay [2] was 91 nM.
